# Data from the antibiotic and cytotoxicity screens of Wong et al. (2023).
# The list shows a part of the results.
# Assays:
# HSkMC = human skeletal muscle cells; assay: cytotoxicity call (relative viability < 0.9); conditions: 10 µM
# HepG2 = assay: cytotoxicity call (relative viability < 0.9); conditions: 10 µM
# S. aureus RN4220 = assay: growth inhibition call (relative growth <= 0.2); conditions: 50 µM
Compound,cytotoxicity call (HSkMC),cytotoxicity call (HepG2),growth inhibition call (S. aureus RN4220)
COc1ccc(S(=O)(=O)N(C)C[C@H]2Oc3ccc(NS(=O)(=O)c4c(C)noc4C)cc3CC(=O)N([C@@H](C)CO)C[C@@H]2C)cc1,inactive,inactive,inactive
C[C@H](CO)N1C[C@H](C)[C@H](CN(C)Cc2ccccc2)Oc2ccc(NC(=O)CCCN(C)C)cc2C1=O,inactive,inactive,inactive
C[C@@H]1CN([C@@H](C)CO)C(=O)c2cc(NC(=O)CCCN(C)C)ccc2O[C@@H]1CN(C)S(=O)(=O)c1ccc(Cl)cc1,inactive,inactive,inactive
COc1ccc2c3c([nH]c2c1)[C@@H](CO)N(Cc1cc(ccc1F)F)C[C@]13CCN(CC1)C(=O)CN(C)C,inactive,inactive,inactive
C[C@H]1CN([C@@H](C)CO)C(=O)c2cc(NC(=O)Nc3ccc(C(F)(F)F)cc3)ccc2O[C@H]1CN(C)C(=O)Nc1ccccc1,inactive,inactive,inactive
COc1cccc(S(=O)(=O)N(C)C[C@@H]2Oc3ncc(C#CCC(C)C)cc3C(=O)N([C@@H](C)CO)C[C@@H]2C)c1,inactive,inactive,inactive
O=C(Oc1ccc(C2CCCCC2)cc1)c1cccs1,inactive,inactive,inactive
COc1ccc(S(=O)(=O)N(C)C[C@H]2OCCCC[C@H](C)Oc3ccc(NC(=O)C4CCCCC4)cc3C(=O)N([C@H](C)CO)C[C@H]2C)cc1,inactive,inactive,inactive
C[C@@H]1CN([C@@H](C)CO)C(=O)CCCn2cc(nn2)CO[C@H]1CN(C)S(=O)(=O)c1ccc(Cl)cc1,inactive,inactive,inactive
C[C@@H]1CN([C@H](C)CO)C(=O)c2cc(NC(=O)Nc3cccc4ccccc34)ccc2O[C@H]1CN(C)S(=O)(=O)c1ccccc1,inactive,inactive,inactive
CC(C)NC(=O)N(C)C[C@@H]1Oc2ccc(NC(=O)C3CCCCC3)cc2CC(=O)N([C@H](C)CO)C[C@H]1C,inactive,inactive,inactive
CN1CCN(C(=O)C[C@@H]2CC[C@@H]3[C@@H](COc4ccc(NC(=O)c5cccs5)cc4C(=O)N3C)O2)CC1,inactive,inactive,inactive
COc1ccc(/C=C/CN(C/C=C/c2ccc(OC)cc2)CCCCNS(=O)(=O)c2cccc3cnccc23)cc1,inactive,active,inactive
C[C@@H]1CN([C@@H](C)CO)C(=O)c2c(c3ccccc3n2C)-c2ccccc2CO[C@@H]1CN(C)Cc1cccc2c1OCCCO2,inactive,inactive,inactive
COc1ccc(S(=O)(=O)Nc2ccc3c(c2)C(=O)N([C@H](C)CO)C[C@@H](C)[C@@H](CN(C)S(C)(=O)=O)OCCCC[C@@H](C)O3)cc1,inactive,inactive,inactive
COc1ccc(NC(=O)N(C)C[C@@H]2OCCCC[C@@H](C)Oc3ccc(NC(=O)Nc4ccc(C(F)(F)F)cc4)cc3C(=O)N([C@@H](C)CO)C[C@H]2C)cc1,inactive,inactive,inactive
NCC[C@H]1CC[C@@H](NC(=O)Cc2ccncc2)[C@@H](CO)O1,inactive,inactive,inactive
CC(C)(C)c1ccc(C(O)CCCN2CCC(C(O)(c3ccccc3)c3ccccc3)CC2)cc1 (stereo not given),active,active,inactive
CO[C@@H]1CN(C)C(=O)c2cc(NC(=O)c3nc4ccccc4s3)ccc2OC[C@@H](C)N(Cc2ccccc2)C[C@H]1C,inactive,inactive,inactive
C[C@@H]1CCCCO[C@H](CN(C)C(=O)Nc2ccc(F)cc2)[C@@H](C)CN([C@H](C)CO)C(=O)c2cc(NC(=O)c3ccccc3)ccc2O1,inactive,inactive,inactive
COc1ccc(NC(=O)N(C)C[C@H]2Oc3ncc(C#CC(C)C)cc3C(=O)N([C@H](C)CO)C[C@@H]2C)cc1,inactive,inactive,inactive
Cc1noc(C)c1S(=O)(=O)N(C)C[C@@H]1Oc2ccc(NC(=O)CCC(F)(F)F)cc2CC(=O)N([C@@H](C)CO)C[C@@H]1C,inactive,inactive,inactive
C[C@H](O)[C@H](O)[C@@H](O)[C@@H](O)/C=N/NC(=O)CCCCC(=O)NO,inactive,inactive,inactive
COc1cccc(C#Cc2ccc3c(c2)O[C@H](CN(C)S(=O)(=O)c2ccccc2F)[C@@H](C)CN([C@H](C)CO)S3(=O)=O)c1,inactive,inactive,inactive
Cc1noc(C)c1S(=O)(=O)Nc1cccc2c1O[C@H](CN(C)Cc1ccc(C(=O)O)cc1)[C@H](C)CN([C@H](C)CO)C2=O,inactive,active,inactive
C[C@H]1CN([C@@H](C)CO)C(=O)Cc2cc(NC(=O)CCCCCC(=O)Nc3ccccc3N)ccc2O[C@@H]1CN(C)Cc1ccc(-c2ccccc2)cc1,inactive,inactive,inactive
CN(C)C(=O)C[C@@H]1C=C[C@@H](NC(=O)C2CCOCC2)[C@@H](CO)O1,inactive,inactive,inactive
Cc1noc(C)c1S(=O)(=O)Nc1ccc2c(c1)C(=O)N([C@@H](C)CO)C[C@@H](C)[C@H](CN(C)Cc1ccccc1)OCCCC[C@@H](C)O2,inactive,inactive,inactive

Compound,cytotoxicity call (HSkMC),cytotoxicity call (HepG2),growth inhibition call (S. aureus RN4220)
C=CC[C@H](CC(=O)NCCO)C(=O)NC[C@H](OC(=O)[C@@H](CC=C)CC(=O)OC(C)(C)C)c1ccccc1,inactive,inactive,inactive
C[C@@H]1CCCCO[C@@H](CN(C)C(=O)C2CCCCC2)[C@@H](C)CN([C@H](C)CO)C(=O)c2cc(NC(=O)CCCCCC(=O)Nc3ccccc3N)ccc2O1,inactive,inactive,inactive
O=c1ccc2ccc(O)cc2o1,inactive,inactive,inactive
CC(C)C#Cc1ccc2c(c1)O[C@H](CN(C)C(=O)c1cccc(F)c1)[C@@H](C)CN([C@@H](C)CO)S2(=O)=O,inactive,inactive,inactive
Cc1cc(C(=O)Nc2cccc3c2O[C@H](CN(C)C(=O)Nc2ccc4c(c2)OCO4)[C@H](C)CN([C@H](C)CO)C3=O)n(C)n1,inactive,inactive,inactive
Cc1noc(C)c1S(=O)(=O)N(C)C[C@@H]1Oc2c(NC(=O)C3CCOCC3)cccc2C(=O)N([C@@H](C)CO)C[C@@H]1C,inactive,inactive,inactive
C[C@@H]1CCCCO[C@@H](CN(C)S(=O)(=O)c2cccs2)[C@H](C)CN([C@@H](C)CO)C(=O)c2cc(NC(=O)CCC(F)(F)F)ccc2O1,inactive,inactive,inactive
COCC#Cc1ccc2c(c1)O[C@@H](CN(C)S(=O)(=O)c1cccc(OC)c1)[C@H](C)CN([C@@H](C)CO)S2(=O)=O,inactive,inactive,inactive
COc1ccc(CN(C)C[C@H]2OCCCC[C@@H](C)Oc3ccc(NC(=O)Nc4ccc(OC)cc4)cc3C(=O)N([C@H](C)CO)C[C@@H]2C)cc1,inactive,inactive,inactive
COC1(NC(=O)C(C(=O)[O-])c2ccc(O)cc2)C(=O)N2C(C(=O)[O-])=C(CSc3nnnn3C)COC21.[Na+].[Na+] (stereo not given),inactive,inactive,active
CN1CCN(C(=O)C[C@H]2CC[C@H]3[C@@H](COC[C@H](O)CN3C(=O)Nc3ccc4c(c3)OCO4)O2)CC1,inactive,inactive,inactive
Nc1cccc(O)c1,inactive,inactive,inactive
Cc1nc(N2CCC3(CC2)CO[C@@H](C)[C@H]3N)c(CO)nc1-c1cccc(Cl)c1Cl,inactive,inactive,inactive
COc1cccc(-c2cn(CC[C@@H]3CC[C@H](NC(=O)CN(C)C)[C@@H](CO)O3)nn2)c1,inactive,inactive,inactive
O=C(c1cccc2ccccc12)N(C1CCCC1)C1CCCC1,inactive,inactive,inactive
Cc1cc(C(=O)Nc2cccc3c2O[C@H](CN(C)S(=O)(=O)c2ccc(F)cc2)[C@@H](C)CN([C@H](C)CO)C3=O)n(C)n1,inactive,inactive,inactive
C[C@@H]1CCCCO[C@H](CN(C)C(=O)Nc2ccc(C(F)(F)F)cc2)[C@H](C)CN([C@@H](C)CO)C(=O)c2cc(NC(=O)NC3CCCCC3)ccc2O1,inactive,inactive,inactive
C[C@@H]1CN([C@H](C)CO)C(=O)c2cc(-c3cccnc3)cnc2O[C@H]1CN(C)Cc1ccc(Oc2ccccc2)cc1,inactive,inactive,inactive
C[C@@H]1CN([C@@H](C)CO)C(=O)c2cc(NC(=O)C3CCCCC3)ccc2O[C@@H](C)CCCCO[C@H]1CN(C)Cc1ccncc1,inactive,inactive,inactive
CC(=O)NCC(=O)N1CCOC[C@]2(CC[C@@H](Cn3cccn3)O2)C1,inactive,inactive,inactive
COc1ccc(S(=O)(=O)N2C[C@H](O)COC[C@@H]3O[C@H](CC(=O)NCCCN4CCOCC4)CC[C@H]32)cc1,inactive,inactive,inactive
COCC(=O)Nc1ccc2c(c1)C(=O)N(C)[C@@H]1CC[C@@H](CC(=O)N3CCc4ccccc4C3)O[C@H]1CO2,inactive,inactive,inactive
COc1ccc(CN(C)C[C@H]2OCCCC[C@H](C)Oc3ccc(NC(=O)c4ccccc4)cc3C(=O)N([C@@H](C)CO)C[C@H]2C)cc1,inactive,inactive,inactive
C[C@H]1CCCCO[C@@H](CN(C)C(=O)Nc2ccc(C(F)(F)F)cc2)[C@@H](C)CN([C@@H](C)CO)C(=O)c2cc(NS(=O)(=O)c3ccccc3)ccc2O1,inactive,active,inactive
OC[C@H]1O[C@@H](Nc2ccccn2)[C@@H](O)[C@@H](O)[C@@H]1O,inactive,inactive,inactive
C[C@H](O)C#Cc1ccc2c(c1)O[C@H](CN(C)C(=O)c1ccncc1)[C@@H](C)CN([C@H](C)CO)S2(=O)=O,inactive,inactive,inactive
O=C(C[C@H]1CC[C@H]2[C@@H](COC[C@H](O)CN2C(=O)Nc2cccc(F)c2)O1)NCCCN1CCOCC1,inactive,inactive,inactive
